Here are results for 42 compounds from ChEMBL document CHEMBL4888484, “Replenishing the malaria drug discovery pipeline: Screening and hit evaluation of the MMV Hit Generation Library 1 (HGL1) against asexual blood stage Plasmodium falciparum ,using a nano luciferase reporter read-out” (2022).

The structures appear in SMILES notation. In all, about 150,000 compounds went through this assay and about 540 (0.36%) showed an effect of 50% or more. The list shows a part of the results.

The test system of this assay is Plasmodium falciparum. Nature of the assay: Primary screen in NF54 nanoGlo assay, in single point, at 2uM, 72h; a lower Z score goes with more inhibition. The class given is functional, Erythrocyte. Particulars: timepoint 72 hour.
Take `CC[C@@H](c1ccccn1)N(C)C(=O)c1nccn1C`: the “% Inhibition” value was -10% and the Z score stood at 1.91.
In the same order, the values of `CC(NC(=O)NCCC1CCCCO1)c1noc(-c2ccccc2)n1` (centres undefined) are -4% and 0.49.
Consider `Cc1nn(-c2ccc3nncn3n2)c(C)c1CCC(=O)N1CCC(C)CC1`, for which the “% Inhibition” value is recorded as -7% and the Z score is recorded as 0.9.
Regarding `CN(C(=O)c1nnc(C(C)(C)C)s1)C1CC1`, the “% Inhibition” value is 2% and the Z score is listed as -0.4.
As to `CCNC(=O)C[C@H]1CCCCN1C(=O)c1ccc(F)c2occc12`, the “% Inhibition” value turned out to be 0% and the Z score was -0.04.
For `C[C@@H]1CCC[C@H](C)N1Cc1nc(-c2cccnc2)no1`, in that order: -13% and 2.57.
As for `COc1ccc(C(=O)Nc2cccc(-c3nnc4n3CCCC4)c2)cc1`, the “% Inhibition” value was -14% and the Z score is reported as 1.29.
For `Cc1ccc(-n2nnnc2-c2ccc(-c3nnnn3-c3ccc(C)cc3)cc2)cc1`, the “% Inhibition” value is -6% and the Z score amounted to 0.85.
For `N#Cc1ncn(CC(=O)NCCC2=CCCCC2)n1`, in that order: -2% and 0.32.
In the same order, the values of `Cc1nc2c(C(=O)NCC3(S(C)(=O)=O)CCCC3)ccnc2[nH]1` are 1% and -0.24.
In the same order, the values of `CC(C)(O)c1nc2ccccc2cc1N` [ACLOPROXALAP] are -2% and 0.23.
For `CN(Cc1nccs1)Cc1noc2c1CCCC2`, the “% Inhibition” value is -22% and the Z score worked out at 2.37.
Take `O=C(Nc1c(C(=O)N2CCCCCC2)oc2ccccc12)c1ccccc1F`: the “% Inhibition” value worked out at 5% and the Z score is on record as -0.54.
In the same order, the values of `O=C(NCCCNC(=O)c1cccc2nn[nH]c12)c1cccc(F)c1` are -5% and 0.74.
For `Cc1ccc2nccc(C(=O)N3CCC[C@H](C(=O)c4cccc5ccccc45)C3)c2c1`, in that order: 5% and -0.68.
`O=C(c1ccco1)N1CC(OCc2cccc(F)c2)C1`: the “% Inhibition” value was -11% and the Z score is 1.82.
Regarding `O=C(N1CCC(Oc2ccc(Cl)cn2)CC1)C1(c2ccccc2)CCOCC1`, the “% Inhibition” value is -23% and the Z score stood at 4.38.
For `CC[C@H]1CCCN(C(=O)COCC(F)(F)F)C1`, the “% Inhibition” value is on record as -8% and the Z score is 0.77.
For `CC(CNC(=O)N1CCOCCC1C)c1ccc(F)c(F)c1` (centres undefined), in that order: -10% and 1.35.
In the same order, the values of `COc1ccccc1-c1noc(CN2CCC(C(=O)N3CCCCCC3)CC2)n1` are 5% and -0.78.
For `CC(C)C1=NN(Cc2ccc(F)cc2F)C(=O)C1`, in that order: -11% and 1.08.
With `Cc1nnc(CCNc2ncc(Cl)cc2Br)n1C`, the “% Inhibition” value was -5% and the Z score is 0.51.
For `CN(C)c1cnc(C(=O)N2CCCC[C@H]2c2nc3ccccc3o2)cn1`, in that order: -9% and 0.88.
For `Cc1cccc(NC(=O)N2CCc3[nH]c(-c4ccccc4)nc3C2)c1`, in that order: -12% and 1.74.
Regarding `CC1CCN(C(=O)Nc2cccnc2)C(c2ccco2)C1` (centres undefined), the “% Inhibition” value was -11% and the Z score was 2.13.
For `CC[C@@H](C(=O)Nc1nccs1)N1CCC2(CC1)CNC(=O)O2`, in that order: -10% and 1.74.
For the compound `Cc1cc(C(=O)N2CCC3(CC2)CC(=O)N(C/C=C/c2ccccc2)C3)no1`, the “% Inhibition” value is given as -9% and the Z score worked out at 1.24.
In the same order, the values of `O=C(c1cc(-c2ccccc2)n[nH]1)N1Cc2cccnc2C1` are -11% and 1.27.
For `CC(C)(C)N1C[C@@H](NC(=O)COc2ccsc2)CC1=O`, in that order: -11% and 2.02.
For `COc1cccc(C(=O)N/C(=N/c2cc(C)ccc2C)N2CCN(CCC#N)CC2)c1`, in that order: -1% and 0.14.
With `Cc1nn(-c2ncnc3nc[nH]c23)c2c1[C@@]1(CC(=O)N2)C(=O)N(CCc2ccc3c(c2)CCO3)c2ccccc21`, the “% Inhibition” value is recorded as 11% and the Z score is on record as -1.37.
For `O=C(O)c1ccc(S(=O)(=O)N2CCCCCCC2)cc1`, in that order: 1% and -0.13.
As for `Cc1cccc(N2CCN(C(=O)[C@@H]3Cc4ccccc4O3)CC2)c1`, the “% Inhibition” value is given as -9% and the Z score came out at 1.47.
In the same order, the values of `CC[C@H](C)c1cc(-c2nc(COCc3ccccc3)no2)on1` are -11% and 2.11.
In the same order, the values of `Cc1ccc(-c2noc3c(N(c4ccc(C(C)C)cc4)c4nc(C)nc5c(-c6ccc(C)cc6)noc45)nc(C)nc23)cc1` are -12% and 1.92.
For `CCC[C@]1(CO)CCCN1Cc1ccco1`, in that order: 5% and -0.66.
Turning to `Cc1nc(C)c(C)c(N2CCN(C[C@H]3CCCS3(=O)=O)CC2)n1`, the “% Inhibition” value was found to be 5% and the Z score is given as -1.02.
In the same order, the values of `CN1CCN(S(=O)(=O)N2CCc3[nH]c(-c4ccccc4)nc3C2)CC1` are -4% and 0.34.
In the same order, the values of `COc1ccc(CCNC(=O)c2ccc(Cn3c(=O)c4ccccc4n(CC(=O)Nc4ccccc4C)c3=O)cc2)cc1OC` are -14% and 1.59.
In the same order, the values of `O=C(Cc1ccc2c(c1)OCO2)N1CCC[C@@H]1Cn1nccn1` are 0% and 0.06.
On to `C=CCN(c1nc2nc(C)cc(C)n2n1)S(=O)(=O)c1ccc(Cl)cc1`, for which the “% Inhibition” value is reported as -6% and the Z score is recorded as 0.57.
As for `Cc1cnc(N[C@@H](C)c2cncc(F)c2)nc1C`, the “% Inhibition” value was -8% and the Z score came out at 1.04.
